Target: human CD26 (human, UniProt P27487 1-766)
Test: cell-based or functional assay

B1: ZB09 (bispecific antibody, human IgG1)
chain: DIVMTQSASSLPVTPGEPASISCRSDKSLLHSNGNTYLYWFLQKPGQSPQVLIYRMSNLASGVPDRFSGSGSGTDFTLTISRVEAEDVGVYYCFQQLEYPYTFGQGTKLEIKGGGGSGGGGSGGGGSQVQLVQSGAEVVKPGASVKISCKASGFNIKDTYIYWVRQRTGQGLEWIGRIEPMNGNTKYDPKFQGRLTMTANTSKNTAYLQLSSLTSEDTAVYYCSRGGWLLLYVMDYWGQGTTVTVSSGGGGSDVQLVQSGAEVKKPGASVKVSCKASGYTFTRYTMHWVRQAPGQGLEWIGYINPSRGYTNYADSVKGRFTITTDKSTSTAYMELSSLRSEDTATYYCARYYDDHYCLDYWGQGTTVTVSSGGGGSGGGGSGGGGSDIVLTQSPATLSLSPGERATLSCRASQSVSYMNWYQQKPGKAPKRWIYDTSKVASGVPARFSGSGSGTDYSLTINSLEAEDAATYYCQQWSSNPLTFGGGTKVEIKGGGG[human IgG1 Fc cut from this listing]GGGGSGGGGSGGGGSGGGGSGGGGSGGGGSGGGGSGGGGSGGGGSGGGGSGGGGSGGGGS[human IgG1 Fc cut from this listing]
- IC50 values (pM) of different bispecific antibodies mediating PBMC cytotoxicity to OS-RC-2: 10.1 pM
